Results on 49 compounds are retold here after PubChem BioAssay AID1508623 (National Center for Advancing Translational Sciences (NCATS), 2021).

About 450 (0.94%) of roughly 48,000 compounds were called active. Roughly 19% stayed inconclusive and do not appear here. Calls come from the whole dose curve; as a rule, active = well fitted inhibition curve with a large enough effect; inconclusive = small, poorly fitted or top-dose-only effect; inactive = no such curve, though single readings can be large or run the other way. The list shows a part of the results.

This test is described as follows: Primary qHTS for Identification of Small Molecule Inhibitors of Huntingtin Promoter Activity. Note: nearly all actives have a fitted effect of over 50% in size. The conditions noted are these: HEK293 HTT promoter firefly luciferase reporter (activity 0% = vehicle and -100% = no light), 24 h; series mostly up to 57.5 µM; activity change, negative = inhibition: at the top concentration. A digest of the protocol:
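Firefly luciferase readout (Dual-Glo, 10 min RT) after 24 h, 37 °C compound exposure (final up to 57.5 uM) of HEK293 reporter cells cultured 24 h beforehand; PTC124 at 50 uM final as control inhibitor; activity scaled vehicle 0%, zero RLU -100%.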
(In general: In qHTS, concentration-response curves come from the screen itself.)
Turning to `Cc1ccc(C(=O)Nc2ccccc2F)cc1S(=O)(=O)N1CCOCC1`, the “activity change, negative = inhibition” value was inactive: 18.3%. The figure for `Cc1ccc(NC(=O)CCC(=O)N2CCOc3ccccc32)c(Cl)c1` is inactive: -17%; for `CC1(C)O[C@@H]2C[C@H]3[C@@H]4C[C@H](F)C5=CC(=O)C=C[C@]5(C)[C@H]4[C@@H](O)C[C@]3(C)[C@]2(C(=O)CO)O1` it is inactive: -3.29%; for `N#Cc1ccccc1NC(=O)C(=O)NCC(c1ccc2c(c1)OCO2)N1CCN(c2ccccc2)CC1` (centres undefined) it is inactive: 4.03%. On to `CCCCN(CC)C(=O)Cn1c(=O)n(-c2ccc(OCC)cc2)c(=O)c2c3c(sc21)CCCC3`, for which the “activity change, negative = inhibition” value was inactive: -26.2%. Regarding `Cc1c(C(=O)Nc2ccc(Br)cc2F)sc2ncnc(N(C)C3CCCCC3)c12`, the “activity change, negative = inhibition” value is inactive: -12.2%.

As for `CCOC(=O)c1c(C)[nH]c(C)c1S(=O)(=O)NCC(=O)N(C)c1ccc(C)c(C)c1`, the “activity change, negative = inhibition” value was inactive: -18.8%. In the case of `O=C(Nc1c(C(=O)c2ccccc2)oc2ccccc12)c1cc(=O)c2ccccc2o1`, the “activity change, negative = inhibition” value is inactive: -7.56%. With `COc1ccc(NC(=O)CSc2nc(-c3ccccc3)nc3cc(=O)[nH]n23)cc1`, the “activity change, negative = inhibition” value is inactive: -12.6%. For `CSc1ncc(C(=O)Nc2ccccc2C(=O)c2ccccc2)c(C)n1` the value was inactive: 15.5%; for `CC(C)NCC(O)COc1cccc2[nH]ccc12` (centres undefined), inactive: 0.667%. The figure for `COc1ccc(C(=O)NCc2nnc(SCC(=O)Nc3ccccc3)n2-c2ccc(F)cc2)cc1` is inactive: -19.8%; for `CCOc1ccc(CCNC(=O)CN2C(=O)C(CC)Oc3ccccc32)cc1OCC` (centres undefined) it is inactive: -17.1%. Take `COc1ccc(OC)c(NC(=O)CSc2ccnc(=O)[nH]2)c1`: the “activity change, negative = inhibition” value is inactive: 0.0715%. `Cn1c(=O)oc2cc(S(=O)(=O)CCC(=O)N3CCN(c4ccccc4)CC3)ccc21`: the activity change, negative = inhibition was inactive: -5.6% [at 11.5 µM]. The figure for `COc1ccccc1-c1cc(C(=O)Nc2sc3c(c2C#N)CCCC3)no1` is inactive: 1.83%; for `COc1ccccc1N1CCN(S(=O)(=O)c2c(C)sc3ncn(CC(=O)Nc4cccc(Cl)c4)c(=O)c23)CC1` it is inactive: -9.3%; for `COC(=O)c1c(-c2ccc(Cl)cc2)noc1N1CCN(c2ccc(OC)cc2)CC1` it is inactive: 6.58%. `COc1ccc(C2CC(c3c(O)n(C4CCCCC4)c(=O)[nH]c3=O)=Nc3ccccc3S2)cc1` (centres undefined): the “activity change, negative = inhibition” value is inactive: -16.9%. The figure for `Cc1ccc2c(c1)NC(=O)C(CC(=O)Nc1cc(Cl)ccc1C)O2` (centres undefined) is inactive: -6.68%; for `CCc1nn2c(=O)cc(COC(=O)CNC(=O)c3ccccc3)nc2s1` it is inactive: -14.4%; for `COc1cc(OC)c(Nc2cc(C)nc3ncnn23)cc1Cl` it is inactive: -2.74%. Consider `CCOc1ccc(C(=O)Nc2cccc(NC(=O)c3ccco3)c2)cc1Cl`, for which the “activity change, negative = inhibition” value was inactive: 3.38%. For the compound `CCN(CC)S(=O)(=O)c1nnc(NC(=O)COc2ccccc2Cl)s1`, the “activity change, negative = inhibition” value is inactive: -10.9%. Take `O=C(COc1ccccc1F)OCc1cc(=O)n2nc(-c3cccs3)sc2n1`: the “activity change, negative = inhibition” value was inactive: -12.6%. As for `COC(=O)c1ccc(NC(C)=O)cc1OC`, the “activity change, negative = inhibition” value was inactive: -2.2%.

As to `CCC(CC)c1nn2c(=O)cc(COc3ccc(NC(=O)c4ccccc4Cl)cc3)nc2s1`, the “activity change, negative = inhibition” value is inactive: -8.37%. With `Cc1ccccc1CNC(=O)C1CCN(c2nn3cc(-c4ccc(F)cc4)nc3s2)CC1`, the “activity change, negative = inhibition” value was inactive: 9.95%. Turning to `CC1CCCCN1CCCNC(=O)Cn1ncc2c([nH]c3ccccc32)c1=O` (centres undefined), the “activity change, negative = inhibition” value was inactive: 4.33%. Turning to `Cc1cccc(CNS(=O)(=O)c2ccc3[nH]c(=O)ccc3c2)c1`, the “activity change, negative = inhibition” value was inactive: -6.36%.

`COc1ccc(Cn2c(=O)[nH]c3cc(C(=O)N4CCN(c5cc(C)ccc5C)CC4)ccc3c2=O)cc1`: the “activity change, negative = inhibition” value is inactive: -27%. For `COc1ccc(C)cc1NC(=O)c1cc(S(=O)(=O)NC2CCCCCC2)ccc1F` the value was inactive: -26.4%; for `CC(C)Cn1c(=O)c2ccccc2n2c(CCC(=O)Nc3cccc(Cl)c3)nnc12`, inactive: -4.48%; for `CCOC(=O)c1cnc2cc(-c3ccc(Cl)cc3)nn2c1-c1ccccc1`, inactive: -20.3%. The figure for `CC(=O)c1cc(-c2ccccc2)n(CC(=O)NC2CCCCC2)c1C` is inactive: -4.02%. For `CCOc1ccccc1/C=C/c1onc(C)c1S(=O)(=O)N1CCC(C(=O)N(CC)CC)CC1` the value was inactive: -25.1%; for `OC(CCN1CCCC1)(c1ccccc1)C1CCCCC1` (centres undefined), inactive: -0.326%. In the case of `O=C1Nc2c(c(=O)[nH]c(=O)n2-c2ccccc2)C1(NS(=O)(=O)c1ccc(Cl)cc1)C(F)(F)F` (centres undefined), the “activity change, negative = inhibition” value is inactive: -11.1%. For `Cc1ccc(NC(=O)Cn2c(=O)n(CCCCCC(=O)NCc3ccc(F)cc3)c(=O)c3sccc32)cc1C` the value was inactive: -10.5%; for `O=C(Cc1ccc(F)cc1)NC1CC(=O)N(c2ccccc2)C1` (centres undefined), inactive: -15.9%; for `CCOc1ccc(Cn2nnc3c(=O)[nH]c(C4CCN(C(=O)c5ccccc5)CC4)nc32)cc1`, inactive: -25.4%. For `Cc1cc(C)cc(-n2nnc(-c3nc(-c4ccc5c(c4)OCO5)no3)c2C)c1` the value was inactive: -8.07%; for `Cc1ccc(S(=O)(=O)C(CNC(=O)C(=O)NCc2ccc(Cl)cc2)c2cccs2)cc1` (centres undefined), inactive: -26.3%; for `CC(=O)c1ccc(NC(=O)c2cn3c4c(ccc(Cl)c4c2=O)OC(C)C3)cc1` (centres undefined), inactive: -7.61%. For `CCC(=O)N1c2ccc(S(=O)(=O)N3CCN(c4ccccc4)CC3)cc2CC1C` (centres undefined) the value was inactive: -7.48%. On to `COc1cc2c(=O)n(CCC(=O)NCC3CCCO3)c(=O)n(CC(=O)Nc3ccc(C)cc3)c2cc1OC` (centres undefined), for which the “activity change, negative = inhibition” value was inactive: -3.39%. As for `Nc1ccc2c(c1)CN1C(=O)c3ccccc3C1=N2`, the “activity change, negative = inhibition” value was inactive: -27.4% [at 25.2 µM].

Consider `CC(Oc1ccc(F)cc1)C(=O)NCC1(N(C)C)CCCCC1` (centres undefined), for which the “activity change, negative = inhibition” value is inactive: -14.6%. `Cc1c(NC(=O)c2ccc(OC(C)C)cc2)cccc1-c1nc2ncccc2o1`: the “activity change, negative = inhibition” value is inactive: 1.87%.
